# Experimental data as given in the supplement of paper PMC3724861.
# The other results are listed elsewhere or left out.
# Tested on: T1, Caupolican (Caup) homeodomain DNA-binding domain
# T1 sequence: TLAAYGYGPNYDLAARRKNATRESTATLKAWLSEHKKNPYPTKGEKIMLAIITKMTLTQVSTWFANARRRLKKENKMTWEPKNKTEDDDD
# Assay: PBM E-score (8-mer, recovered from the published 9-mer minima) (E-score (dimensionless, -0.5 to 0.5)); Drosophila protein; higher = stronger relative binding preference, active = 0.31 or more
# In short: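 Caup's homeodomain DNA-binding domain (residues 214-303) was made by in vitro transcription and translation and applied at 100 nM to custom-designed protein binding microarrays. Each value is an enrichment score that gives relative binding preference for a short DNA word, with higher meaning stronger. The 8-mer values were recovered from published 9-mer scores, each of which was the minimum of its two constituent 8-mer scores. A cutoff of 0.31 marks candidate sites.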
row,Sequence,PBM E-score
1,AGGTTACG,inactive: -0.0221
2,CTTGTAAC,active: 0.424
3,CTCGAGTA,inactive: 0.0555
4,AGCTTTTC,inactive: -0.00736
5,AGAGGTCG,inactive: -0.127
6,CGGAGGTA,inactive: -0.0752
7,TCCTGCGA,inactive: -0.0251
8,ATGCTTTA,inactive: 0.126
9,GGCGCGCA,inactive: -0.127
10,TCGAAACA,inactive: 0.152
11,CTTCCAGC,inactive: -0.248
12,GTCATCGA,inactive: 0.0888
13,TCCGTCGA,inactive: -0.0302
14,CTCCTCAG,inactive: -0.117
15,GCGGGCAC,inactive: -0.144
16,CAGGGGCC,inactive: -0.276
17,ACTCGAGA,inactive: 0.00964
18,GCCCTTAC,inactive: -0.156
19,ACCACCAG,inactive: -0.0219
20,CTATAAGA,inactive: 0.0561
21,ACGGACCA,≥ 0.0071
22,ACAATGCT,inactive: 0.242
23,CTGACACC,inactive: 0.122
24,ACGTCTGA,≥ 0.0544

row,Sequence,PBM E-score
1,CAGGAAGA,inactive: -0.0858
2,ACATAGAG,inactive: 0.116
3,AGTCCGGC,inactive: -0.144
4,TAAGGACA,inactive: 0.144
5,GCACTTAC,inactive: -0.0194
6,GAACTGAA,inactive: 0.0405
7,CGTGCCTC,inactive: -0.188
8,CTCCTATA,inactive: -0.0635
9,CCACAATC,inactive: -0.0353
10,ATCATATA,inactive: 0.186
11,AATTTACC,inactive: 0.0909
12,GTGCTAAC,inactive: 0.0208
13,CGCTGACA,inactive: 0.13
14,GGCTTGCA,inactive: -0.0355
15,AGCCGAAA,≥ -0.0104
16,CTCCCGTA,inactive: -0.181
17,TGGATTAA,inactive: 0.0568
18,GAGGTGGC,inactive: -0.247
19,ACTATAAG,inactive: 0.125
20,GGTAGAAC,inactive: 0.0897
21,ACATTGGT,inactive: 0.14
22,GCCCCCAA,inactive: -0.27
23,AGCTGTAG,inactive: 0.0249
24,ATGTGGGG,inactive: -0.141

row,Sequence,PBM E-score
1,CGACCGCA,inactive: -0.144
2,AAGATGAT,≥ 0.12
3,AATGACTA,inactive: 0.114
4,GACACGAC,active: 0.347
5,CCTAGCAA,inactive: 0.0501
6,TGGTTCAA,inactive: -0.00435
7,CCTCGCTC,inactive: -0.145
8,ACGTGACT,inactive: 0.0125
9,CTAGGAGC,inactive: -0.193
10,CAATAGCC,inactive: 0.0422
11,AATCGACT,inactive: 0.0371
12,GATTCATA,inactive: 0.0911
13,CAAAGAGG,inactive: -0.0613
14,CCGCACAA,inactive: -0.0477
15,AAAGAATT,inactive: 0.0402
16,ATGCACCG,inactive: -0.0436
17,GAGTTGCA,inactive: -0.0255
18,CTCGAATA,inactive: -0.105
19,CGTCCCAC,inactive: -0.127
20,AATCGTAG,inactive: 0.128
21,ACACGCGC,inactive: 0.101
22,CTAAGGCA,inactive: -0.176
23,AGATTTAA,inactive: -0.0644
24,AAGGTAGA,inactive: 0.00307

row,Sequence,PBM E-score
1,ATACGTGC,inactive: 0.1
2,AACTACCC,inactive: 0.0415
3,CTGCCCAA,inactive: -0.0948
4,CACAGGTG,inactive: -0.0105
5,GTTGACAA,inactive: 0.294
6,CTAGTCAC,inactive: 0.141
7,CCGGGCTA,inactive: -0.226
8,GTAAGCAC,inactive: -0.00763
9,TACAAGAA,active: 0.351
10,ACTCCCGA,inactive: -0.0588
11,AACGGTAA,inactive: 0.0102
12,GAAAGAAA,inactive: -0.0143
13,CCTGCAAA,inactive: -0.135
14,CAGTGACC,inactive: -0.134
15,GCTACTGA,inactive: -0.0208
16,GTCCAGAC,inactive: -0.0468
17,AGCTATCA,inactive: -0.00454
18,GGTCCACC,inactive: -0.12
19,AGCAACAC,inactive: 0.186
20,CAGGGTAG,inactive: -0.12
21,AGTCTACG,inactive: -0.117
22,CAGACGCA,inactive: -0.105
23,CATCGATC,inactive: 0.0872
24,AGATGAAA,inactive: 0.073

row,Sequence,PBM E-score
1,CTAGCGAA,inactive: -0.132
2,GGCGAGCC,inactive: -0.169
3,CGGTAACG,inactive: -0.0676
4,CGGCCTAA,inactive: -0.101
5,CCCCAACA,inactive: 0.0515
6,GCACAAAC,inactive: 0.0907
7,CCTGAAGG,inactive: -0.291
8,CGCCCCGA,inactive: -0.286
9,AGGTTAAG,inactive: -0.0563
10,GATGGGAA,inactive: -0.0609
11,CACTGATA,inactive: 0.129
12,CCTCAGAA,inactive: -0.0716
13,CAGGCCTA,inactive: -0.102
14,AGTGCCGC,inactive: -0.185
15,ACCTACGA,≥ 0.0502
16,CCAGTCGC,inactive: -0.153
17,CCTCTCCC,inactive: -0.192
18,ATCGATGA,inactive: 0.187
19,CGTAAGGA,inactive: -0.00588
20,GTGACGTA,inactive: 0.0283
21,AGAGTTCG,inactive: -0.048
22,AGTTCCAG,inactive: -0.0677
23,AAAGCACC,inactive: -0.149
24,CGTATGAG,inactive: 0.0161

row,Sequence,PBM E-score
1,ATCTGTGA,inactive: 0.00137
2,CGCTTCCC,inactive: -0.158
3,AAAATCTG,inactive: 0.0858
4,TAGTAGCA,≥ 0.105
5,ATCTCCAG,inactive: -0.0588
6,GTGGCTCA,inactive: -0.086
7,CCGCGGCA,inactive: -0.192
8,AGCTTGAG,inactive: -0.17
9,CAACCATG,inactive: 0.18
10,ACAAGAGG,inactive: 0.142
11,GGTTCCTA,inactive: -0.0269
12,ACAGTCCA,inactive: 0.0228
13,CAAGTCAA,inactive: 0.0959
14,GATGGGCA,inactive: -0.0582
15,CGTAGTCC,inactive: -0.0839
16,AAGGTGCA,inactive: -0.031
17,ATAGGACC,inactive: -0.0892
18,AATATGGT,inactive: 0.0711
19,AAACGCCA,inactive: -0.00421
20,CTTGTGAA,inactive: 0.129
21,AACGTCAA,inactive: 0.0558
22,CTCAAGTC,inactive: -0.0127
